Hit rate of the full screen: of about 39,000 compounds, about 220 (0.56%) showed activity. This is one part of the list.
tested on: Escherichia coli K-12 BW25113; assay: relative growth (OD600 normalised to plate interquartile mean) (fraction); higher = less growth inhibition, active = 0.2 or less; conditions: 50 µM; LB; incubation time: overnight (16-24 h)
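Further: static incubation at 37 °C against the wild-type strain, values averaged over two biological replicates.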

Row | SMILES | relative growth
1 | C[C@@H]1CN([C@H](C)CO)C(=O)c2cc(NC(=O)Nc3ccc(C(F)(F)F)cc3)ccc2O[C@@H](C)CCCCO[C@H]1CN(C)C(=O)c1ccccc1 | inactive: 1.01
2 | Cc1noc(C)c1NC(=O)Nc1ccc2c(c1)C(=O)N([C@H](C)CO)C[C@H](C)[C@H](CN(C)C(=O)NC(C)C)O2 | inactive: 1
3 | C[C@H](CO)N1C[C@H](C)[C@H](CN(C)S(C)(=O)=O)Oc2cc(C#CCN(C)C)ccc2S1(=O)=O | inactive: 0.997
4 | C[C@@H]1CN([C@@H](C)CO)C(=O)c2cc(NC(=O)C3CCCCC3)ccc2O[C@@H]1CN(C)Cc1ccc(-c2ccccc2)cc1 | inactive: 1.01
5 | C[C@@H]1CCCCO[C@@H](CN(C)Cc2ccccc2)[C@@H](C)CN([C@H](C)CO)C(=O)c2cc(NC(=O)CCC(F)(F)F)ccc2O1 | inactive: 0.966
6 | Cn1nccc1N | inactive: 0.99
7 | Clc1ccc2c(c1)C(N1CCNCC1)=Nc1ccccc1O2 | inactive: 0.793
8 | CO[C@H]1CN(C)C(=O)c2cc(NS(=O)(=O)CC(F)(F)F)ccc2OC[C@@H](C)N(C(=O)NC(C)C)C[C@H]1C | inactive: 1
9 | C[C@H](CO)N1C[C@H](C)[C@@H](CN(C)S(C)(=O)=O)Oc2cc(C#Cc3ccccc3)ccc2S1(=O)=O | inactive: 1.01
10 | C[C@H](CO)N1C[C@H](C)[C@H](CN(C)Cc2ccc(-c3ccccc3)cc2)OCc2ccccc2-c2ccccc2C1=O | inactive: 0.999
11 | C[C@@H]1CCCCO[C@@H](CN(C)Cc2ccc(Cl)c(Cl)c2)[C@H](C)CN([C@H](C)CO)C(=O)c2cc(NS(=O)(=O)c3cccs3)ccc2O1 | inactive: 0.983
12 | C[C@H](CO)N1C[C@H](C)[C@H](CN(C)S(C)(=O)=O)Oc2ccc(NC(=O)Nc3ccc4c(c3)OCO4)cc2CC1=O | inactive: 0.97
13 | O=C1c2ccccc2C(=O)C1c1ccccc1 | inactive: 0.94
14 | C[C@@H]1CN([C@@H](C)CO)C(=O)c2cc(NC(=O)CCCN(C)C)ccc2O[C@@H]1CN(C)Cc1ccncc1 | inactive: 0.978
15 | Cc1noc(C)c1C(=O)OCC(=O)NC1CC1 | inactive: 0.94
16 | COc1ccc(NC(=O)N(C)C[C@@H]2Oc3ncc(C#CC(C)(C)O)cc3C(=O)N([C@H](C)CO)C[C@@H]2C)cc1 | inactive: 0.991
17 | OCCN1CC(O)C(O)C(O)C1CO (stereo unspecified) | inactive: 1.03
18 | CCN(CC)CCNC(=O)c1cc(Cl)c(N)cc1OC.Cl | inactive: 1.15
19 | COc1ccc(NC(=O)N(C)C[C@H]2OCCCC[C@H](C)Oc3ccc(NC(=O)NC4CCCCC4)cc3C(=O)N([C@@H](C)CO)C[C@H]2C)cc1 | inactive: 1.01
20 | C[C@H](CO)N1C[C@H](C)[C@H](CN(C)Cc2ccc3c(c2)OCO3)Oc2c(NC(=O)c3cnccn3)cccc2C1=O | inactive: 1.02
21 | C[C@@H]1CCCCO[C@@H](CN(C)C(=O)c2ccncc2)[C@H](C)CN([C@@H](C)CO)C(=O)c2cc(NS(=O)(=O)c3cn(C)cn3)ccc2O1 | inactive: 0.996

Row | SMILES | relative growth
22 | COc1ccc(NC(=O)Nc2ccc3c(c2)C(=O)N([C@@H](C)CO)C[C@H](C)[C@H](CN(C)S(=O)(=O)c2ccc(Cl)cc2)OCCCC[C@@H](C)O3)cc1 | inactive: 1.03
23 | CN(C)CCCNC(=O)C[C@H]1CC[C@H]2[C@H](COc3ccc(NC(=O)c4ccc5c(c4)OCO5)cc3C(=O)N2C)O1 | inactive: 0.989
24 | Cc1noc(C)c1S(=O)(=O)Nc1ccc2c(c1)C(=O)N([C@@H](C)CO)C[C@H](C)[C@@H](CN(C)S(=O)(=O)c1ccc(F)cc1)O2 | inactive: 1.02
25 | NC(=O)CNC(=O)c1cccc(Cl)c1 | inactive: 1
26 | C[C@@H]1CN([C@@H](C)CO)C(=O)c2cc(NC(=O)CCCN(C)C)ccc2O[C@@H](C)CCCCO[C@@H]1CN(C)CC1CCCCC1 | inactive: 0.992
27 | C[C@@H]1CN([C@@H](C)CO)C(=O)CCCn2nncc2CO[C@H]1CN(C)C(=O)Nc1ccc(N2CCCCC2)cc1 | inactive: 1.03
28 | CN1N=C(C(N)=O)CCC1=O | inactive: 1.01
29 | C[C@@H]1CCCCO[C@H](CN(C)S(=O)(=O)c2ccc(Cl)cc2)[C@@H](C)CN([C@H](C)CO)C(=O)c2cc(NC(=O)C3CCCCC3)ccc2O1 | inactive: 0.989
30 | C[C@@H]1CN([C@@H](C)CO)C(=O)c2cccc(NC(=O)c3nc4ccccc4s3)c2O[C@H]1CN(C)Cc1ccc(Cl)c(Cl)c1 | inactive: 1.02
31 | CC(C)(C)[C@H]1C=C(C(=O)N2CCN(Cc3ccccc3)CC2)O[C@@H](OCc2ccc(COC(=O)NCCCCCC(=O)NO)cc2)C1 | inactive: 0.979
32 | COc1ccc([Si](C)(C)[C@@H]2[C@@H](CC(=O)N3Cc4ccccc4C[C@H]3CO)O[C@]3(C(=O)N(Cc4ccc(I)cc4)c4ccccc43)[C@H]2C)cc1 | inactive: 1.02
33 | C[C@H](CO)N1C[C@H](C)[C@@H](CN(C)C(=O)Nc2ccc(F)cc2)Oc2ccc(NC(=O)Nc3ccc(C(F)(F)F)cc3)cc2CC1=O | inactive: 1.01
34 | C[C@H](CO)N1C[C@H](C)[C@@H](CN(C)CC2CCCCC2)Oc2c(NC(=O)CCCCCC(=O)Nc3ccccc3N)cccc2C1=O | inactive: 0.999
35 | O=C1N[C@@H](c2ccccc2)COCc2cn(nn2)CC[C@H](Cc2ccc(C(F)(F)F)cc2)C(=O)N[C@@H](c2ccccc2)COCc2cn(nn2)CC[C@@H]1Cc1ccc(C(F)(F)F)cc1 | inactive: 1.02
36 | COCC(=O)Nc1ccc2c(c1)OC[C@@H](C)N(C(=O)Cc1cccnc1)C[C@H](C)[C@@H](OC)CN(C)C2=O | inactive: 0.985
37 | C[C@H]1CCCCO[C@@H](CN(C)Cc2ccncc2)[C@@H](C)CN([C@@H](C)CO)C(=O)c2cc(NC(=O)Nc3ccc4c(c3)OCO4)ccc2O1 | inactive: 0.999
38 | Cc1noc(C)c1S(=O)(=O)Nc1ccc2c(c1)C(=O)N([C@H](C)CO)C[C@H](C)[C@H](CN(C)C(=O)Nc1ccc(C(F)(F)F)cc1)OCCCC[C@@H](C)O2 | inactive: 0.995
39 | Cc1noc(C)c1NC(=O)Nc1ccc2c(c1)C(=O)N([C@@H](C)CO)C[C@H](C)[C@@H](CN(C)C(=O)Nc1ccc(F)cc1)OCCCC[C@@H](C)O2 | inactive: 0.993
40 | C[C@H](CO)N1C[C@H](C)[C@@H](CN(C)S(=O)(=O)c2ccccc2)Oc2ccc(NS(=O)(=O)c3ccccc3)cc2CC1=O | inactive: 1.01
41 | COc1ccc(S(=O)(=O)Nc2ccc3c(c2)CC(=O)N([C@H](C)CO)C[C@@H](C)[C@@H](CN(C)S(C)(=O)=O)O3)cc1 | inactive: 0.904
42 | CC(=CC(=O)OCCCCCCCCC(=O)O)CC1OCC(CC2OC2C(C)C(C)O)C(O)C1O (stereo unspecified) | inactive: 0.526

Row | SMILES | relative growth
43 | C[C@@H]1CN([C@@H](C)CO)C(=O)Cc2cc(NC(=O)CCCCCC(=O)Nc3ccccc3N)ccc2O[C@H]1CN(C)Cc1ccc(C(F)(F)F)cc1 | inactive: 1.02
44 | CC(C)(Oc1ccc(CCNC(=O)c2ccc(Cl)cc2)cc1)C(=O)O | inactive: 1.02
45 | CN1CCN(C(=O)[C@H]2[C@H](CO)[C@H]3Cn4c(cccc4=O)[C@@H]2N3S(=O)(=O)c2ccccc2F)CC1 | inactive: 1.02
46 | COC(=O)C[C@@H]1CC[C@@H]2[C@H](COC[C@@H](O)CN2S(=O)(=O)c2cn(C)cn2)O1 | inactive: 0.993
47 | NCCCCC(=O)O | inactive: 0.976
48 | CC(=O)N(C)C[C@@H]1Oc2ncc(C#CC(C)(C)O)cc2C(=O)N([C@@H](C)CO)C[C@H]1C | inactive: 1.01
49 | C[C@@H]1CCCCO[C@@H](CN(C)C(=O)CCC(F)(F)F)[C@H](C)CN([C@H](C)CO)C(=O)c2cc(NC(=O)c3ccccc3)ccc2O1 | inactive: 0.987
50 | Cc1ccc(S(=O)(=O)N(C)C[C@@H]2OCCCC[C@@H](C)Oc3ccc(NC(=O)Nc4c(C)noc4C)cc3C(=O)N([C@@H](C)CO)C[C@H]2C)cc1 | inactive: 0.978
51 | NCCc1ccc(O)c(O)c1 | inactive: 0.99
52 | C[C@@H]1CN([C@H](C)CO)S(=O)(=O)c2ccc(C3=CCCC3)cc2O[C@H]1CN(C)C(=O)C1CCOCC1 | inactive: 1.01
53 | Cc1noc(C)c1NC(=O)Nc1ccc2c(c1)C(=O)N([C@H](C)CO)C[C@H](C)[C@@H](CN(C)Cc1ccc3c(c1)OCO3)OCCCC[C@@H](C)O2 | inactive: 1.03
54 | C[C@@H]1CN([C@H](C)CO)C(=O)c2cccc(NS(=O)(=O)c3ccccc3)c2O[C@@H]1CN(C)S(=O)(=O)c1cccs1 | inactive: 0.999
55 | C[C@@H]1CN([C@H](C)CO)C(=O)c2cc(NC(=O)Nc3ccc(F)cc3)ccc2O[C@@H]1CN(C)CC1CCCCC1 | inactive: 0.987
56 | CC(C)NC(=O)N(C)C[C@@H]1OCCCC[C@@H](C)Oc2ccc(NC(=O)C3CCCCC3)cc2C(=O)N([C@H](C)CO)C[C@@H]1C | inactive: 0.996
57 | C[C@H]1CN([C@@H](C)CO)C(=O)c2cc(NC(=O)Nc3ccc(F)cc3)ccc2O[C@H]1CN(C)Cc1ccc(Oc2ccccc2)cc1 | inactive: 0.982
58 | C[C@@H]1CCCCO[C@@H](CN(C)CC2CCCCC2)[C@H](C)CN([C@@H](C)CO)C(=O)c2cc(NC(=O)Nc3ccc(C(F)(F)F)cc3)ccc2O1 | inactive: 1.02
59 | C[C@@H]1CN([C@H](C)CO)C(=O)c2cc(NC(=O)Nc3ccc(C(F)(F)F)cc3)ccc2O[C@H]1CN(C)Cc1ccc(C(F)(F)F)cc1 | inactive: 1.02
60 | Cc1ccc(S(=O)(=O)N(C)C[C@@H]2Oc3ccc(NC(=O)NC(C)C)cc3CC(=O)N([C@H](C)CO)C[C@H]2C)cc1 | inactive: 1.03
61 | O=C(C[C@H]1CC[C@H]2[C@@H](COC[C@@H](O)CN2C(=O)Nc2cccc(Cl)c2)O1)NCc1ccccc1F | inactive: 1.02
